Laboratory results reported in PubChem BioAssay AID624417 (National Center for Advancing Translational Sciences (NCATS), 2012).
Where “and” joins values, the source holds several entries; their conditions need not be identical. Equal values may be shown once. Screen size: about 410,000 compounds; about 6,400 (1.6%) were called active. This list was built around the results that the source calls inconclusive (neither active nor inactive); the mix of calls is not that of the screen. The call rests on the fitted dose curve; in most records, active means well fitted inhibition curve with a large enough effect; inconclusive means small, poorly fitted or top-dose-only effect; inactive means no such curve, though single readings can be large or run the other way. A potency beside an inconclusive call is a rough fit, not a confirmed value.

biological target: Glucagon-like peptide 1 receptor (Homo sapiens) (UniProt P43220); assay: qHTS of GLP-1 Receptor Inverse Agonists (Inhibition Mode); settings: HEK293 GLP-1R CRE-luciferase, luminescence, 24 h, GLP-1R form is constitutively active; series mostly up to 38.3 µM; further: nearly all actives have a fitted effect of over 55% in size
UniProt P43220, sequence (P43220 whole entry, looked up): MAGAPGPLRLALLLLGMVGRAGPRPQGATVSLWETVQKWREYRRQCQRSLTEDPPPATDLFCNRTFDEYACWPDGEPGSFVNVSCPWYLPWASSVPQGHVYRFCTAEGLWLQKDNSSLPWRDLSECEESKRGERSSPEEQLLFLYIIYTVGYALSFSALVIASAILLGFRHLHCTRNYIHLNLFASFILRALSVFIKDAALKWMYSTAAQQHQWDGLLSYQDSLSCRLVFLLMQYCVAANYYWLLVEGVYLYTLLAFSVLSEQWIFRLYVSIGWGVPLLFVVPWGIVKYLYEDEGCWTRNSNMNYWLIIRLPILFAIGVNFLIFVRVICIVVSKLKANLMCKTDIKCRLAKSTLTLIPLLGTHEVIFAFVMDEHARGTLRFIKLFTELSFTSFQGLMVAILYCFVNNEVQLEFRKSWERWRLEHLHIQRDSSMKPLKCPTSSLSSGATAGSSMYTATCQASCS
Procedure, shortened: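 Cells are plated, allowed 12 hours at 37 deg C, then treated with compounds for 24 hr before luciferase detection reagent is added and luminescence is read after 12 min at room temperature. The HEK293 line carries constitutively active GLP-1R with a cAMP-responsive reporter.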
Potency means the concentration at half of the fitted maximal effect; tags describe the fitted curve by direction and shape.

SMILES	Potency
COC(=O)C1CN(C(=O)COc2cc(C)c(Cl)c(C)c2)c2ccccc2O1 (stereo not drawn)	inconclusive: 20 µM [inhibitor, partial curve, poor fit]
O=C(c1ccccn1)N1N=C2/C(=C/c3ccccc3)CCCC2C1c1ccccc1 (stereo not drawn)	inconclusive: 11.2 µM [inhibitor, partial curve, poor fit]
CSC(=Nc1ccccc1)N=C(SCc1ccccc1)N(C)C	active: 3.55 µM
CNS(=O)(=O)c1cc2c3c(cccc3c1)C(=O)NC2=O	inconclusive: 4.47 µM [inhibitor, full curve, poor fit]
CCC(Oc1ccc2c(=O)c(-c3ccccc3OC)coc2c1)C(=O)OCc1ccccc1 (stereo not drawn)	inconclusive: 11.2 µM [inhibitor, partial curve, poor fit]
CCn1c(=O)c2ccccc2n(Cc2cccc(C)c2)c1=O	inconclusive: 10 µM [inhibitor, partial curve, poor fit]
Cc1nc2c(-c3ccc(F)cc3)c(C)nn2c(C)c1CCC(=O)NCc1cccc(Cl)c1	inactive
Cc1cccc(NC(=S)NCc2ccc3c(c2)cc(C)n3C)c1C	inconclusive: 28.2 µM [inhibitor, single point]
N#Cc1c(NC(=O)c2cccnc2)sc2c1CCC2	inconclusive: 2.51 µM [inhibitor, full curve]
Cc1cc(-c2ccc(C)c(S(=O)(=O)NCCCN3CCN(c4ccccc4)CC3)c2)on1	inconclusive: 15.8 µM [inhibitor, partial curve, poor fit]
CCC(=O)N1CCc2cc(Br)cc(S(=O)(=O)N3CCN(c4cccc(Cl)c4)CC3)c21	inactive
COc1ccccc1-c1cc(C(F)(F)F)nc(NCc2cccs2)n1	inconclusive: 28.2 µM [inhibitor, single point]
CC(=O)Nc1cccc(-c2csc(C(C)(O)c3cccc(F)c3)n2)c1 (stereo not drawn)	inconclusive: 28.2 µM [inhibitor, single point]
Cc1cc(C)cc(NC(=O)c2cc3c(=O)n(Cc4ccco4)ccc3nc2C)c1	inactive
CC1C(=O)N(Cc2cn(CCC3OCCCO3)nn2)CCS(=O)(=O)N1Cc1ccc(-c2ccc(Cl)c(Cl)c2)cc1 (stereo not drawn)	inconclusive: 12.6 µM [inhibitor, single point]
CC(CCc1ccco1)NC(=O)c1cc2c(-c3ccccc3F)nn(C)c2s1 (stereo not drawn)	inconclusive: 28.2 µM [inhibitor, single point]
Cc1ccn2c(-c3csc(NCc4ccccc4)n3)c(C)nc2c1	inconclusive: 8.91 µM [inhibitor, partial curve, poor fit]
COc1cc(/C=C2/C(=O)N(c3ccc([N+](=O)[O-])cc3)N=C2N2CCOCC2)ccc1O	inconclusive: 28.2 µM [inhibitor, single point]
Cc1ccc(Nc2nc(-c3ccc(F)cc3)cs2)nc1	inconclusive: 5.62 µM [inhibitor, partial curve]

SMILES	Potency
CC(=NNC(=S)N(Cc1ccccn1)Cc1ccccn1)c1cnccn1	inconclusive: 2.24 µM [inhibitor, full curve, poor fit]
CCOc1ccccc1CNC(=O)c1cc2oc3ccccc3c2n1CC	inconclusive: 7.08 µM [inhibitor, partial curve, poor fit] and inconclusive: 7.08 µM [inhibitor, partial curve]
O=c1[nH]cnc2c1C1(CCCC1)Cc1ccccc1-2	inconclusive: 10 µM [inhibitor, partial curve, poor fit]
Cc1nc2ccc(NC(=O)c3nn(CC(C)C)c(=O)c4ccccc34)cc2s1	inconclusive: 3.16 µM [inhibitor, single point]
O=C(c1cnc(N2CCCCC2)c2ccccc12)N1CCN(c2ccc(F)cc2)CC1	inconclusive: 22.4 µM [inhibitor, single point]
NCC(=O)Nc1ccc(Cl)cc1C(=O)c1ccc[nH]1	inconclusive: 1.26 µM [inhibitor, full curve, poor fit]
Cc1c(NC(=O)c2ccc(-c3ccc(F)cc3)o2)cccc1-c1nc2ncccc2o1	inactive
COc1cccc(C(=O)Nc2ccc3nc(SCC(=O)N4CCc5ccccc54)sc3c2)c1	inconclusive: 5.01 µM [inhibitor, partial curve]
Cc1nn(CC(=O)NCCc2ccc(Cl)cc2Cl)c(C)c1[N+](=O)[O-]	inconclusive: 28.2 µM [inhibitor, single point]
O=C(NC(=S)NNC(=O)c1ccccc1O)c1cccc([N+](=O)[O-])c1	inconclusive: 17.8 µM [inhibitor, partial curve, poor fit]
Cc1cc(/C=C2\SC(=S)N(C)C2=O)c(C)n1-c1cccc(O)c1	active: 2.82 µM
CCCC(=O)N(c1ccc2oc(=O)sc2c1)S(=O)(=O)c1ccccc1	inconclusive: 6.31 µM [inhibitor, partial curve, poor fit]
O=C(/C=C/c1ccccc1)NCCSCc1ccc(Cl)cc1	inconclusive: 3.98 µM [inhibitor, partial curve, poor fit]
O=C(NC(=S)NNC(=O)c1ccccc1O)c1ccccc1	inconclusive: 3.98 µM [inhibitor, full curve, poor fit]
O=C1CC2(CCN(C(=O)COc3ccc(F)cc3)CC2)Oc2ccccc21	inconclusive: 28.2 µM [inhibitor, single point]
Cc1cc(Br)ccc1NC(=O)C(NS(=O)(=O)c1cccs1)c1ccccc1 (stereo not drawn)	inconclusive: 11.2 µM [inhibitor, partial curve]
CC(Sc1nnc(-c2cccs2)n1Cc1ccccc1)C(=O)NCc1ccc2c(c1)OCO2 (stereo not drawn)	inconclusive: 11.2 µM [inhibitor, partial curve, poor fit]
O=c1c2nnn(Cc3ccccc3)c2ncn1C/C=C/c1ccccc1	inconclusive: 11.2 µM [inhibitor, partial curve, poor fit]
N#Cc1nc(COc2ccccc2F)oc1NCc1ccc(F)cc1	inconclusive: 28.2 µM [inhibitor, single point]
